From the RNAGym collection of RNA variant scans (doi:10.1073/pnas.2313332121) come the findings set out here.

Variants at the floor of the assay are shown more often than the library holds them.

First the molecules themselves.
B1: TPR 5TU (parent)
chain: GGAUCUUCUCGAUCUAACAAAAAAGACAAAUCUGCCACAAAGCUUGAGAGCAUCUUCGGAUGCAGAGGCGGCAGCCUUCGGUGGCGCGAUAGCGCCAACGUUCUCAACUAUGACACGCAAAACGCGUGCUCCGUUGAAUGGAGUUUAUCAUG

Variants of B1 are the subject of this data set. Nature of the data set: polymerase ribozyme fitness, log enrichment relative to wild type (log ratio); higher = more active; in vitro selection for triplet polymerase activity. The method, boiled down: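 Only genotypes with ≥10 input reads and ≥1 read per output were kept after Illumina sequencing of input and output libraries. These libraries were PCR-built, transcribed mutants of each subunit of a heterodimeric triplet polymerase ribozyme, each put through one triplicate in vitro selection round with frozen incubation at −7 °C, gel excision of extended constructs, streptavidin-bead capture and RT-PCR. Fitness is a logarithmic ratio of genotype enrichment to wild-type enrichment, from inverse-variance-weighted replicate averages, with the logarithm in base 2.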
Consider GGAUCUUCUCGAUCUAACAAAAAAGACAAAUCUGCCACAAAGCUUGAGAGCAUCUUCGGAUGCAUAGUCGGCAGCCUUCGUUGGCGCGAUAGCGACAAGGUUCUUAACUAUGACACGCAAAACGCGUGCUCCGUUGAAUGGAGUUUAUCAUG, for which the “polymerase ribozyme fitness (log ratio)” value is no more than -4.2.

For GGAUCUUCUCGAUCUAACAAAAAAGACAAAUCUGCCACAAAGCUUGAGAGCAUCUUCGGAUGCAAAGGCGGCAGCCUUCGGUGGGGCGAUAGCGCCAACGUUCUCAACUAUGACACGCAAAACGCGUGCUCCGUUGAAUGGAGUUUAUCCUG, the “polymerase ribozyme fitness (log ratio)” value was no more than -4.2.

Take GGAUCUUCUCGAUCUAACAAAAAAGACAAAUCUGCCACAAAGCUUGAGAGCAUCUUCGGAUGCACACGCGGCAGCCUUCGGUGGCGCGAUAGCGCCAGCGUUCUCAACUAUGACACGCAAAACGCGUGCUCCGUUGAAUCGAGUUUCUGAUG: the “polymerase ribozyme fitness (log ratio)” value was no more than -4.2.

Take GGAUCUUCUCGAUCUAACAAAAAAGACAAAUCUGCCACAAAGCUUGAGAGCAUCUUCGGAUGCAGCGGCGGCAGCCUUCGGUGGCGAGAUAGCGCCAACGUUCUCAACUAUGACACGCAAAACCCGUGCUCCGAUAAAGGGAGUUUAUCAUG: the “polymerase ribozyme fitness (log ratio)” value was no more than -4.2.

Consider GGAUCUUCUCGAUCUAACAAAAAAGACAAAUCUGCCACAAAGCUUGAGAGCAUCUUCGGAUGCACAGGCGGCAGCCUUCGGUGGCGCGAUAGCGCCAACGUUCUCAACUAUGACACGCAAAACGCGUGCUCGGUUGAAUGGAGUUUAUCAUG, for which the “polymerase ribozyme fitness (log ratio)” value is no more than -4.2.

As to GGAUCUUCUCGAUCUAACAAAAAAGACAAAUCUGCCACAAAGCUUGAGAGCAUCUUCGGAUGCAUAGGCGGAAGCCUUCGGUGGCGCGAUAGCGCGUACGUUCUCAACUAUGACACGCAAAACGCGUGCUCCGUUGAAUGGAGUUUAUCAUG, the “polymerase ribozyme fitness (log ratio)” value was no more than -4.2.

Turning to GGAUCUUCUCGAUCUAACAAAAAAGACAAAUCUGCCACAAAGCUUGAGAGCAUCUUCGGAUGCAGCGGCGGCAGCCUUCGGUGGCGCGAUAGCGCCAACGUUCUCAACUAUGACACGCAAAACGCGUGCUACGUUGUAUGGAGUUUAUCAUG, the “polymerase ribozyme fitness (log ratio)” value was no more than -4.2.

Regarding GGAUCUUCUCGAUCUAACAAAAAAGACAAAUCUGCCACAAAGCUUGAGAGCAUCUUCGGAUGCAUAGGCGGCGGCCUUCGGUGGCGCGAUAGCGCCAACGUUCUCAACUAUGACACGCAAAACGCGUGCUCCGUUGAAUGAAGUUUAUCAUG, the “polymerase ribozyme fitness (log ratio)” value is no more than -4.2.

As for GGAUCUUCUCGAUCUAACAAAAAAGACAAAUCUGCCACAAAGCUUGAGAGCAUCUUCGGAUGCAGCGGCGACGGCCUUCGGUCGCGCGAUAGCGCCAACGUUCUCAACUAUGACACGCAAAACGCGUGCUCCGUUGAAUGGAGUUUAUCAAG, the “polymerase ribozyme fitness (log ratio)” value was no more than -4.2.

As for GGAUCUUCUCGAUCUAACAAAAAAGACAAAUCUGCCACAAAGCUUGAGAGCAUCUUCGGAUGCACAGGCGGCAGCCUUCGCUGGCGCGAUAGCGCCAACGUUCUCAACUAUGACACGCAAAACGCGUGCUCCGUUGAAUGGAGUUUAUCAUG, the “polymerase ribozyme fitness (log ratio)” value is no more than -4.2.

With GGAUCUUCUCGAUCUAACAAAAAAGACAAAUCUGCCACAAAGCUUGAGAGCAUCUUCGGAUGCUGAGGCGGCAGCCUUCGGUGGCGCGACAGCUCCAACGUUCUCACCUAUGACACGCAAAACGAGUGCUCCGUUGAAUGGAGUUUAUCAUG, the “polymerase ribozyme fitness (log ratio)” value was no more than -4.2.

Consider GGAUCUUCUCGAUCUAACAAAAAAGACAAAUCUGCCACAAAGCUUGAGAGCAUCUUCGGAUGCAGCGGCGGCAGGCUUCGGUGGCUCGAUAGCGCCAACGUUCUCAACUAUGACACGCAAAAAGCGUGCUCCGUUGAAUGGAGUUUAUCAUG, for which the “polymerase ribozyme fitness (log ratio)” value is no more than -4.2.

In the case of GGAUCUUCUCGAUCUAACAAAAAAGACAAAUCUGCCACAAAGCUUGAGAGCAUCUUCGGAUGCAUAGGCGGCAGCCUUCGGUGGCGCGAUAGCGCCAACGUUCUCAACUAUGACACGCAAAACGCGAGCUCCGUUGAAUGUAGUGUAUCAUG, the “polymerase ribozyme fitness (log ratio)” value is no more than -4.2.

As to GGAUCUUCUCGAUCUAACAAAAAAGACAAAUCUGCCACAAAGCUUGAGAGCAUCUUCGGAUGCUGAGGCGGCAGCCUUCGGAGGCGCGACAGCGCCAACGUUCUCAACUAUGACACGCAAAACGCGUGCUCCGUUGAAUGGAGUUUAUCAUG, the “polymerase ribozyme fitness (log ratio)” value was no more than -4.2.

Consider GGAUCUUCUCGAUCUAACAAAAAAGACAAAUCUGCCACAAAGCUUGAGAGCAUCUUCGGAUGCAAAGGCGGCAGCCUACGGUGGCGCGAUAGCGCCAACGUUCUCAACUAUGACACGCAUAACGCGUGCUCCGUUGAAUGGAGUUUAUCAUG, for which the “polymerase ribozyme fitness (log ratio)” value was no more than -4.2.

For the variant GGAUCUUCUCGAUCUAACAAAAAAGACAAAUCUGCCACAAAGCUUGAGAGCAUCUUCGGAUGCAAAGGCGGCAGCCUUCGGUGGCGCGAUAGCGCCAACGUUCUCAAGUAUGACACGCAAAACGUGUGCUCCGUUGAAUGGAGUUUAUCAUG, the “polymerase ribozyme fitness (log ratio)” value was no more than -4.2.

As to GGAUCUUCUCGAUCUAACAAAAAAGACAAAUCUGCCACAAAGCUUGAGAGCAUCUUCGGAUGCUGAGGCGGCAGCCAUCGGUAGCGCGAUAGCGCCAACGUUCUCAACUAUGAGACGCAGAACGCGUGCUCCGUUGAAUGGAGUUUAUCAUG, the “polymerase ribozyme fitness (log ratio)” value is no more than -4.2.

As to GGAUCUUCUCGAUCUAACAAAAAAGACAAAUCUGCCACAAAGCUUGAGAGCAUCUUCGGAUGCAAAGGCGGCAGCCAUCGGUGGCGCGACAGCGCCAACGUUAUCAACUAUGACACGCAAAACGCGUGCUCCGUUGAAUGGAGUUUAUCAUG, the “polymerase ribozyme fitness (log ratio)” value was no more than -4.2.

As for GGAUCUUCUCGAUCUAACAAAAAAGACAAAUCUGCCACAAAGCUUGAGAGCAUCUUCGGAUGCACAGACGGCAGCCUUCAGUGUCGGGAUAGCGCCAACGUUCUCAACUAUGACACGCAAAACGCGUGCUCCGUUGAACGGAGUUUAUCAUG, the “polymerase ribozyme fitness (log ratio)” value is no more than -4.2.
